{"source": "paper PMC4336329", "about": "(PLoS ONE, 2015)", "note": "Screen size: about 310,000 compounds; about 2,200 (0.71%) showed an effect of 50% or more. The effect is printed as a negative number. The list shows a part of the results."}
{"biological_target": "human ether-à-go-go-related gene (hERG) potassium channel (human, UniProt Q12809)", "sequence (Q12809 whole entry, looked up)": "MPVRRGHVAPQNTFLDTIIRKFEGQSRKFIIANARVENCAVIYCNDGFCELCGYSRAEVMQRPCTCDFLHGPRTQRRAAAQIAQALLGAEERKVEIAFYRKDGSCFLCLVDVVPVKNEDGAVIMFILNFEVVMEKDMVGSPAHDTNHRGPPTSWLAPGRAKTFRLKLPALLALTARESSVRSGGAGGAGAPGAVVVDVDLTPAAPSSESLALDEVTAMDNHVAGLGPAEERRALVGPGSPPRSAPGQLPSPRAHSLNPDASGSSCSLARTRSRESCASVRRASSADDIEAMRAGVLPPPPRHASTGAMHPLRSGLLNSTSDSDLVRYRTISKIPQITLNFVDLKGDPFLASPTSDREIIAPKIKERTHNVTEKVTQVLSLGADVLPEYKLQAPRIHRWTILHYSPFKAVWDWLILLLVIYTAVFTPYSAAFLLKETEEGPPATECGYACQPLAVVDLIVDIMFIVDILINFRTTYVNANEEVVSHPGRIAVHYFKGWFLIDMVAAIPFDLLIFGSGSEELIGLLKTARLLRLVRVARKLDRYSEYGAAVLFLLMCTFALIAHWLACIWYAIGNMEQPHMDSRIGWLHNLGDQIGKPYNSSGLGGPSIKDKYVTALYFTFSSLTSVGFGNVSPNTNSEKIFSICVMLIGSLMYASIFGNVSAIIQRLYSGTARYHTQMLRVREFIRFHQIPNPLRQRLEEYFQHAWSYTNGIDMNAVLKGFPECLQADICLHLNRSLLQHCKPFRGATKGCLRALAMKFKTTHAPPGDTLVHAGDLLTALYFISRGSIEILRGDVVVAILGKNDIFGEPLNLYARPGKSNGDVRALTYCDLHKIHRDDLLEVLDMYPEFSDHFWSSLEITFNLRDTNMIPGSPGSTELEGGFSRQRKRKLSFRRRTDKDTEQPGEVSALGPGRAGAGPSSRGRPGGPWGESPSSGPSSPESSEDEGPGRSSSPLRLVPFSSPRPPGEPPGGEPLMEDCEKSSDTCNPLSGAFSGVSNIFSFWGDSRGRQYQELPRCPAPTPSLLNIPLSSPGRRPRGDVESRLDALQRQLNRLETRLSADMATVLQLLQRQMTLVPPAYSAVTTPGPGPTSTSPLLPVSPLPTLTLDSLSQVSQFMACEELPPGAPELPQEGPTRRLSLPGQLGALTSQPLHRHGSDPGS", "assay": "primary screen, population patch clamp on CHO cells stably expressing hERG", "units": {"hERG current change (%, negative = inhibition) at 1uM": "%"}}
{"smiles": "O=C(c1cccnc1)c1cccnc1", "hERG current change (%, negative = inhibition) at 1uM": 15.2}
{"smiles": "Cc1ccnc(NC(=O)c2cccc(OC(F)F)c2)n1", "hERG current change (%, negative = inhibition) at 1uM": 13.3}
{"smiles": "CN(C)S(=O)(=O)N1CCN(S(=O)(=O)c2ccccc2)CC1", "hERG current change (%, negative = inhibition) at 1uM": 15.6}
{"smiles": "COc1cc(CNCc2ccncc2)cc(OC)c1OC.Cl", "hERG current change (%, negative = inhibition) at 1uM": 17}
{"smiles": "O=C(c1cc(-c2ccc(Cl)cc2)on1)N1CCN(c2ccccc2)CC1", "hERG current change (%, negative = inhibition) at 1uM": 5.65}
{"smiles": "CCOc1ccccc1NC(=O)C(CC)Sc1nc2ccsc2c(=O)n1CCC(=O)O", "note": "(stereo not shown)", "hERG current change (%, negative = inhibition) at 1uM": 12}
{"smiles": "O=C(CCCOc1ccc(Cl)cc1Cl)NCCCO", "hERG current change (%, negative = inhibition) at 1uM": -0.891}
{"smiles": "Cc1ccccc1NS(=O)(=O)c1ccc(Cl)cc1", "hERG current change (%, negative = inhibition) at 1uM": 0.133}
{"smiles": "O=S(=O)(c1ccccc1)N(CC(O)Cn1c2ccccc2c2ccccc21)c1ccccc1", "note": "(stereo not shown)", "hERG current change (%, negative = inhibition) at 1uM": 5.61}
{"smiles": "CC(C)(C)c1ccc(C(CC(=O)O)NC(=O)CCCc2ccccc2)cc1", "note": "(stereo not shown)", "hERG current change (%, negative = inhibition) at 1uM": 10.4}
{"smiles": "O=C(N1CCN=C1SCc1cccnc1)C12CC3CC(CC(C3)C1)C2", "hERG current change (%, negative = inhibition) at 1uM": 8.54}
{"smiles": "CCCC(=O)Nc1ccc(NC(=O)c2ccco2)c(OC)c1", "hERG current change (%, negative = inhibition) at 1uM": 9.53}
{"smiles": "O=C(NCCN1CCOCC1)c1cc2sccc2n1Cc1ccc(F)cc1", "hERG current change (%, negative = inhibition) at 1uM": -1.57}
{"smiles": "CN(C(=O)C1CCN(S(=O)(=O)c2ccccc2)CC1)c1c(N)n(Cc2ccccc2)c(=O)[nH]c1=O", "hERG current change (%, negative = inhibition) at 1uM": 15}
{"smiles": "CC(Sc1ccc(Cl)cc1)C(=O)NCc1ccc2c(c1)OCO2", "note": "(stereo not shown)", "hERG current change (%, negative = inhibition) at 1uM": 9.26}
{"smiles": "COc1ccc(C(NC(=O)C(C)C)c2ccc3cccnc3c2O)cc1", "note": "(stereo not shown)", "hERG current change (%, negative = inhibition) at 1uM": 5.67}
{"smiles": "COc1ccc(N2CC(O)(c3ccc(F)cc3)[N+]3=C2CCCC3)cc1.[Br-]", "note": "(stereo not shown)", "hERG current change (%, negative = inhibition) at 1uM": 11.9}
{"smiles": "COc1ccc(OC)c(NC(=O)COC(=O)/C=C/c2c(C)nn(C3CCS(=O)(=O)C3)c2Cl)c1", "note": "(stereo not shown)", "hERG current change (%, negative = inhibition) at 1uM": 9.74}
{"smiles": "CC(=O)Nc1ccc(C(=O)OCc2ccc(F)cc2Cl)cc1", "hERG current change (%, negative = inhibition) at 1uM": 22.5}
{"smiles": "CC1CCCC(C)N1C(=O)c1cc(-c2cccs2)on1", "note": "(stereo not shown)", "hERG current change (%, negative = inhibition) at 1uM": 6.03}
{"smiles": "CSCCC(NC(=O)c1ccccc1)C(=O)NCCCSc1ccccc1", "note": "(stereo not shown)", "hERG current change (%, negative = inhibition) at 1uM": 11.1}
{"smiles": "O=C(CN1CCN(c2ccccn2)CC1)Nc1cccc(C(F)(F)F)c1", "hERG current change (%, negative = inhibition) at 1uM": 3.24}
{"smiles": "Cc1ccc(NC2=NCCCS2)cc1Cl", "hERG current change (%, negative = inhibition) at 1uM": 15.1}
{"smiles": "CC1(C)CC(=O)C=C(NCC2CCCO2)C1", "note": "(stereo not shown)", "hERG current change (%, negative = inhibition) at 1uM": 6.93}
{"smiles": "O=C(N/C(=C\\c1ccco1)C(=O)N1CCCC(CO)C1)c1ccccc1", "note": "(stereo not shown)", "hERG current change (%, negative = inhibition) at 1uM": 15.7}
{"smiles": "COc1ccccc1N1CCN(C(=O)c2cccc(NC3=NC4CS(=O)(=O)CC4S3)c2)CC1", "note": "(stereo not shown)", "hERG current change (%, negative = inhibition) at 1uM": 8.82}
{"smiles": "Fc1ccc(Oc2cnc3ccccc3n2)cc1", "hERG current change (%, negative = inhibition) at 1uM": 4.24}
{"smiles": "CCN(CC)CCNC(CC(=O)Nc1ccc(Cl)cc1Cl)C(=O)O", "note": "(stereo not shown)", "hERG current change (%, negative = inhibition) at 1uM": 11.8}
{"smiles": "CC1CC(=O)Nc2cc([N+](=O)[O-])ccc2N1", "note": "(stereo not shown)", "hERG current change (%, negative = inhibition) at 1uM": 6.17}
{"smiles": "Cc1ccccc1CN1CCN(C(=O)CC(C)C)CC1", "hERG current change (%, negative = inhibition) at 1uM": 2.76}
{"smiles": "COC(=O)[C@@H]1C[C@H]1[C@@H](NP(=O)(c1ccccc1)c1ccccc1)c1ccccc1", "hERG current change (%, negative = inhibition) at 1uM": 15.7}
{"smiles": "COc1ccc([N+](=O)[O-])cc1NC(=O)CSc1ccc2ccccc2c1", "hERG current change (%, negative = inhibition) at 1uM": 15.8}
{"smiles": "CCC(=O)Nc1cc(C)c(NC(=O)C23CC4CC(CC(C4)C2)C3)cn1", "hERG current change (%, negative = inhibition) at 1uM": 12.7}
{"smiles": "COc1ccc(C2NC3=C(CCCC3)C(C#N)(C#N)C2(C#N)C#N)cc1", "note": "(stereo not shown)", "hERG current change (%, negative = inhibition) at 1uM": 15}
{"smiles": "CC(=O)c1sc(NC(=O)COc2ccc(Cl)cc2Cl)nc1C", "hERG current change (%, negative = inhibition) at 1uM": 13.3}
{"smiles": "Cc1ccc(S(=O)(=O)NCc2ccccc2)s1", "hERG current change (%, negative = inhibition) at 1uM": 9.96}
{"smiles": "Cc1ccc(-c2nn(-c3ccccc3)cc2/C=C(\\C#N)C(=O)NCc2ccccc2)cc1", "hERG current change (%, negative = inhibition) at 1uM": 3.79}
{"smiles": "COc1ccc(OC)c(NC(=O)NCc2ccc(F)cc2)c1", "hERG current change (%, negative = inhibition) at 1uM": 9.09}
{"smiles": "O=C(CCCOc1ccc(Cl)cc1Cl)Nc1ccccn1", "hERG current change (%, negative = inhibition) at 1uM": 12.9}
{"smiles": "Cn1c(=O)c2ncn(CC(=O)Nc3ccc(N4CCOCC4)cc3)c2n(C)c1=O", "hERG current change (%, negative = inhibition) at 1uM": 3.73}
{"smiles": "Cc1cc(NC(=O)c2cccc(S(=O)(=O)Nc3cccc(C(=O)O)c3)c2)no1", "hERG current change (%, negative = inhibition) at 1uM": 14.3}
{"smiles": "COc1cccc(CNc2nc3ccccc3n2CCN2CCCCC2)c1", "hERG current change (%, negative = inhibition) at 1uM": -4.52}
{"smiles": "CCN1C(=O)N(CC)C2NC(=S)NC21", "note": "(stereo not shown)", "hERG current change (%, negative = inhibition) at 1uM": 7.44}
{"smiles": "COc1ccc(C)cc1NC(=O)CSc1ccc(-c2ccco2)nn1", "hERG current change (%, negative = inhibition) at 1uM": 13.4}
{"smiles": "O=C(CSc1nnc(CNC(=O)c2ccco2)o1)Nc1ccc(OC(F)(F)F)cc1", "hERG current change (%, negative = inhibition) at 1uM": -16.1}
{"smiles": "S=C(NC1CCCCC1)N1CCN(C2CCCCC2)CC1", "hERG current change (%, negative = inhibition) at 1uM": 11.1}
{"smiles": "Cc1cccc(N(CC(=O)NCc2ccco2)C(=O)CNS(=O)(=O)c2ccc(F)cc2)c1", "hERG current change (%, negative = inhibition) at 1uM": 22}
{"smiles": "COc1ccccc1CNC(=S)Nc1ccc2nc(N3CCN(C)CC3)cc(C)c2c1", "hERG current change (%, negative = inhibition) at 1uM": 12}
{"smiles": "COCCCn1c(C(=O)NCCC2=CCCCC2)cc2c(=O)n3ccccc3nc21", "hERG current change (%, negative = inhibition) at 1uM": 4.42}
{"smiles": "CC1=CC2=NC(=O)/C(=C/c3cccn3Cc3ccccc3)C(=N)N2O1", "hERG current change (%, negative = inhibition) at 1uM": 2.81}
{"smiles": "CCC(C)Sc1nnc(CNS(=O)(=O)c2ccc(F)cc2)n1C", "note": "(stereo not shown)", "hERG current change (%, negative = inhibition) at 1uM": 12.5}
{"smiles": "CC1CCN(C(=O)c2[nH]cnc2C(=O)Nc2ccon2)CC1", "hERG current change (%, negative = inhibition) at 1uM": 13.3}
{"smiles": "COc1ccc(N2C(=O)CC(N3CCC(O)(c4ccc(Cl)cc4)CC3)C2=O)cc1", "note": "(stereo not shown)", "hERG current change (%, negative = inhibition) at 1uM": -6.36}
{"smiles": "c1ccc(OCCCCN2CCOCC2)cc1", "hERG current change (%, negative = inhibition) at 1uM": -7.26}
{"smiles": "Cc1cc(C(=O)COc2ccc3ccc(=O)oc3c2)c(C)n1C", "hERG current change (%, negative = inhibition) at 1uM": 29.5}
{"smiles": "CCS(=O)(=O)N1CCN(c2ccc(C(=O)NC3C4CC5CC(C4)CC3C5)cc2[N+](=O)[O-])CC1", "note": "(stereo not shown)", "hERG current change (%, negative = inhibition) at 1uM": 9.48}
{"smiles": "CS(=O)(=O)N(CC(=O)NCC1CCCO1)c1cc(Cl)c(Cl)cc1Cl", "note": "(stereo not shown)", "hERG current change (%, negative = inhibition) at 1uM": 10.7}
{"smiles": "O=C(O)Cc1c(-c2ccccc2)c2cc(Cl)ccc2[nH]c1=O", "hERG current change (%, negative = inhibition) at 1uM": 17.6}
